Test results: doi:10.1101/2022.06.06.495010 (bioRxiv, 2022)

B1: EphA2 wild-type, full-length, labeled at the C-terminus with mTurquoise or eYFP (receptor)
chain: [not shown - about 500 residues]IGGVAVGVVLLLVLAGVGFFIHRRRKNQRARQSPEDVYFSKSEQLKPLKTYVDPHTYEDPNQAVLKFTTEIHPSCVTRQKVIGAGEFGEVYKGMLKTSSGKKEVPVAIKTLKAGYTEKQRVDFLGEAGIMGQFSHHNIIRLEGVISKYKPMMIITEYMENGALDKFLREKDGEFSVLQLVGMLRGIAAGMKYLANMNYVHRDLAARNILVNSNLVCKVSDFGLSRVLEDDPEATYTTSGGKIPIRWTAPEAISYRKFTSASDVWSFGIVMWEVMTYGERPYWELSNHEVMKAINDGFRLPTPMDCPSAIYQLMMQCWQQERARRPKFADIVSILDKLIRAPDSLKTLADFDPRVSIRLPSTSGSEGVPFRTVSEWLESIKMQQYTEHFMAAGYTAIEKVVQMTNDDIKRIGVRLPGHQKRIAYSLLGLKDQVNTVGIPI
B2: EphA2 G539I/A542I/G553I HR mutant, full-length, labeled at the C-terminus with mTurquoise or eYFP (receptor)
chain: [not shown - about 500 residues]IIGVIVGVVLLLVLAIVGFFIHRRRKNQRARQSPEDVYFSKSEQLKPLKTYVDPHTYEDPNQAVLKFTTEIHPSCVTRQKVIGAGEFGEVYKGMLKTSSGKKEVPVAIKTLKAGYTEKQRVDFLGEAGIMGQFSHHNIIRLEGVISKYKPMMIITEYMENGALDKFLREKDGEFSVLQLVGMLRGIAAGMKYLANMNYVHRDLAARNILVNSNLVCKVSDFGLSRVLEDDPEATYTTSGGKIPIRWTAPEAISYRKFTSASDVWSFGIVMWEVMTYGERPYWELSNHEVMKAINDGFRLPTPMDCPSAIYQLMMQCWQQERARRPKFADIVSILDKLIRAPDSLKTLADFDPRVSIRLPSTSGSEGVPFRTVSEWLESIKMQQYTEHFMAAGYTAIEKVVQMTNDDIKRIGVRLPGHQKRIAYSLLGLKDQVNTVGIPI
B3: EphA2 G540I/G544I GZ mutant, full-length, labeled at the C-terminus with mTurquoise or eYFP (receptor)
chain: [not shown - about 500 residues]IGIVAVIVVLLLVLAGVGFFIHRRRKNQRARQSPEDVYFSKSEQLKPLKTYVDPHTYEDPNQAVLKFTTEIHPSCVTRQKVIGAGEFGEVYKGMLKTSSGKKEVPVAIKTLKAGYTEKQRVDFLGEAGIMGQFSHHNIIRLEGVISKYKPMMIITEYMENGALDKFLREKDGEFSVLQLVGMLRGIAAGMKYLANMNYVHRDLAARNILVNSNLVCKVSDFGLSRVLEDDPEATYTTSGGKIPIRWTAPEAISYRKFTSASDVWSFGIVMWEVMTYGERPYWELSNHEVMKAINDGFRLPTPMDCPSAIYQLMMQCWQQERARRPKFADIVSILDKLIRAPDSLKTLADFDPRVSIRLPSTSGSEGVPFRTVSEWLESIKMQQYTEHFMAAGYTAIEKVVQMTNDDIKRIGVRLPGHQKRIAYSLLGLKDQVNTVGIPI

Target: the molecule itself
Experiment: fluorescence intensity fluctuations

Protein | stoichiometry N
B1 | ≥ 2 and 2
B2 | ≥ 2 and 2
B3 | ≥ 2 and 2

Values joined by “and” are separate entries in the source; they are usually repeats but may differ in a detail not shown here. Equal values may be shown once.
